Assay results published in article PMC6919601, “Identification of Plasmodium dipeptidyl aminopeptidase allosteric inhibitors by high throughput screening” (PLoS ONE, 2019).
Among all 110,000 compounds or so, about 230 (0.21%) showed an effect of 50% or more. The list shows a part of the results.

Molecular target: DPAP1 (Plasmodium falciparum, UniProt Q8IIJ9)
Assay: primary screen, percent inhibition; read by cleavage of a fluorogenic dipeptide substrate; higher = more effect of the substance
Parameters: species or system P. falciparum D10 trophozoite lysates; single well
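Further: 30 min substrate incubation versus DMSO and 10 µM JCP410 controls.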

Chain of DPAP1 (Q8IIJ9 whole entry, looked up): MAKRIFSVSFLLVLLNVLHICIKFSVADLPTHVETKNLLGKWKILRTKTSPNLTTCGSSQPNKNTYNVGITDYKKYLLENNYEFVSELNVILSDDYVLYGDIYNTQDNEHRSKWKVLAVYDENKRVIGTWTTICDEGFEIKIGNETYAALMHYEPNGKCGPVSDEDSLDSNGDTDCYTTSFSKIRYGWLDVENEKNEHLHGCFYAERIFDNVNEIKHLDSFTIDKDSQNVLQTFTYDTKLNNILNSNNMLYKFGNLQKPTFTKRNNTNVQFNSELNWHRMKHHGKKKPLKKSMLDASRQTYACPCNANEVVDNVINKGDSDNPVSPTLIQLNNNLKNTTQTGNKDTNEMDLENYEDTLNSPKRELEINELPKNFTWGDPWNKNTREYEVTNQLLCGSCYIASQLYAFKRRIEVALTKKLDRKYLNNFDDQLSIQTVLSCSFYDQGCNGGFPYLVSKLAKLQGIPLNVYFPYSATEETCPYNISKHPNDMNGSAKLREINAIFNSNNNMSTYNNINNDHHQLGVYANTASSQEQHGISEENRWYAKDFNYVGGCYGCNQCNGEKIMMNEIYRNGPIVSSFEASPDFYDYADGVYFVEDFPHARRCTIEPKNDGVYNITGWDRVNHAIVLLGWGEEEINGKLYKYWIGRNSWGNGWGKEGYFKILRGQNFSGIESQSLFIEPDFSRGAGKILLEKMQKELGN

SMILES	% Inhibition @ 10 uM [%]
CCN(CC)C(=O)C(c1ccccc1)c1ccccc1	-0.261
CCCN1C(=O)c2ccccc2NC1c1ccc2c(c1)OCO2 (stereo not drawn)	-6.7
CC(C)C[C@H](NC(=O)N1CCCCC1)C(=O)NCC#N	1.35
Fc1cccc(CN2CCN(c3cccc(C(F)(F)F)c3)CC2)c1	-1.86
NS(=O)(=O)c1ccc(NC(=O)c2cc(-c3ccc(Cl)s3)nc3ccccc23)cc1	-2.8
COc1ccc2cc3c(N)nn(C(=O)c4ccncc4)c3nc2c1	-3.68
CC1CCN(S(=O)(=O)N2CCCC(C(=O)N3CCN(C(=O)c4ccco4)CC3)C2)CC1 (stereo not drawn)	2.01
O=C(c1cc(C2CC2)[nH]n1)N(CCc1ccccc1)Cc1ccccc1	2.79
CCOC(=O)c1c(NC(=O)c2ccc(C(C)(C)C)cc2)sc(C(C)=O)c1C	6.51
COc1ccccc1C(=O)Nc1nn2c(-c3ccccc3C)nnc2s1	3.3
CCCN1CCN(C(=O)CN2Cc3ccccc3C2=O)CC1	2.11
CC(Cc1ccccc1F)N1CCN(Cc2ccccc2)CC1 (stereo not drawn)	10.4
COc1ccc(Cl)cc1NC(=O)C1C2C=CC(C2)C1C(=O)O (stereo not drawn)	-5.35
CC(=O)N1[C@@H](C2C(=O)NN=C2C)C[C@H](C)N1c1ccccc1 (stereo partly drawn)	-7.5
O=c1cc(O)n(-c2ccccc2)c(=S)[nH]1	-3.04
COc1cc2c(cc1OC)C(c1cccc(Br)c1)NC(=O)C2 (stereo not drawn)	-5.48
Cc1ccc(-c2noc(CSc3nnc(C)n3-c3cccc(C)c3)n2)cc1	-5.91
Cc1ccccc1OCCCC(=O)Nc1nc2ccccc2s1	-3.41
C=CCOc1ccccc1/C=c1\sc2nc(-c3cccs3)nn2c1=O	-1.52
C=CCN1C(=O)C(CC(=O)Nc2ccccc2F)S/C1=N\c1ccccc1C (stereo not drawn)	-5.7
CC(C)(C)c1ccc(S(=O)(=O)CCc2ccccn2)cc1	0.035

SMILES	% Inhibition @ 10 uM [%]
O=C(O)c1ccccc1C(=O)NCC1COc2ccccc2O1 (stereo not drawn)	-2.48
O=C(C1CCC1)N1CCN(c2ccc(OCc3ccccc3)cc2)CC1	-0.536
O=C(CCCOc1ccc(Cl)cc1Cl)Nc1ccc(O)cc1C(=O)O	-9.2
CCCSc1oc(-c2cccs2)nc1S(=O)(=O)c1ccccc1	0.0339
CCOC(=O)C1=CN(Cc2ccc(OC)cc2)C=C(C(=O)OCC)C1c1cccc(OC)c1OC	3.45
CCOC(=O)c1c(C)[nH]c(C)c1S(=O)(=O)NCC(=O)N1CCN(C(=O)c2ccco2)CC1	1.41
Cc1ccccc1NC(=O)c1cc(C(=O)Nc2ccccc2C)n(C)n1	1.96
N#CC1=C2c3ccccc3CC3(CCCC3)N2C(=O)C1=O	-0.736
O=C(CCNS(=O)(=O)c1cccc2nonc12)NCCc1ccc(Cl)cc1	6.57
Cc1nc2cc(-c3ccc(Cl)cc3)nn2c(C)c1CCC(=O)NC(C)c1cccs1 (stereo not drawn)	-8.02
CCCS(=O)(=O)n1nc(-c2ccc(OC)cc2OC)cc1N	5.77
CCOC(=O)C1=C(C)NC(=O)NC1c1ccccc1 (stereo not drawn)	-5.9
COc1ccc(CCNC(=O)Cn2ncc3c2-c2ccccc2OC3)cc1OC	-1.66
N#Cc1cc2c(nc1SCc1ccccc1)CCC2	-0.759
COc1ccccc1C(=O)N1CCC2(CC1)N=C(c1ccc(C)cc1)C(=O)N2	-0.48
Cc1ccc(NC(=O)CN(C2CCCCC2)S(C)(=O)=O)c(C)c1	-0.545
CNC(=O)CCc1nc(-c2ccccc2)no1	3.62
Cc1c(C(=O)/C=C/c2ccccc2Cl)c2cc(O)ccc2n1C	-2.7
O=C(Nc1cccc(C(F)(F)F)c1)c1cc2ccccc2oc1=O	4.67
Cc1cc(NC(=O)c2cc3n(n2)C(C(F)(F)F)CC(c2ccc(Cl)c(Cl)c2)N3)no1 (stereo not drawn)	-0.142
CC(C)Cn1c(-c2ccc(S(=O)(=O)N3CCOCC3)cc2)cs/c1=N\c1ccc(F)cc1	-0.622

SMILES	% Inhibition @ 10 uM [%]
CCCNC(=O)c1cc2ncc(Br)cn2n1	1.04
CCOC(=O)c1c(C)n(C)c2ccc(OCC(O)Cn3nc(C)cc3C)cc12 (stereo not drawn)	-5
COc1ccc(C(=O)CSc2nc(O)c3c(C)c(C)sc3n2)cc1C	-7.18
CCN(CC)C(=O)c1ccc(COc2ccccc2Br)o1	-5
O=C(CC1OCC2CCCCN2C1=O)Nc1ccc(F)cc1 (stereo not drawn)	6.61
CCOc1cc(C=C2C(=O)NC(=O)NC2=O)ccc1OCC(=O)O	-6.6
O=C(O)c1ccc(CSc2ccccn2)cc1	2.67
CCOC(=O)C1=C(C)N=c2s/c(=C/c3ccccc3F)c(=O)n2C1c1ccccc1F (stereo not drawn)	13.1
Cc1cc2c(c(=O)o1)C(c1ccc(-c3ccccc3)cc1)C(C#N)=C(N)O2 (stereo not drawn)	0.317
Cc1ccc(Cl)cc1N1CCN(C(=O)COc2ccc(S(=O)(=O)NCC(C)C)cc2)CC1	-3.92
CC1=C(C(=O)OCc2ccccc2)C(c2ccccc2Cl)NC(=O)N1 (stereo not drawn)	0.219
COc1ccccc1CC(=O)NCc1nc(-c2ccc(Cl)cc2)no1	-2.99
O=C(O)C1C2C=CC(C2)C1C(=O)Nc1nc(-c2ccccc2)cs1 (stereo not drawn)	1.67
Cc1ccc(C(=O)Nc2ccc3c(c2)OCO3)cc1C	1.65
Cc1ccc(-n2ncc3c(O)nc(SCC(=O)c4ccccc4)nc32)cc1	-1.54
COc1ccccc1N1CCN(C(=O)Nc2cccc(Cl)c2)CC1	-5.61
C=CCOC(=O)C1=C(C)N=C(S)NC1c1ccc(C(C)(C)C)cc1 (stereo not drawn)	1.52
CCOc1ccc(N(CC(=O)Nc2c(C)cccc2C)S(C)(=O)=O)cc1	2.22
O=C(N[C@@H](Cc1cc(I)c(O)c(I)c1)C(=O)NC/C=C/S(=O)(=O)c1ccccc1)c1ccc(Br)cc1	-3.04
CC1CC(C)CN(C(=O)c2cc(-c3ccccn3)nc3ccc(S(=O)(=O)N4CCOCC4)cc23)C1 (stereo not drawn)	3.47
CCOC(=O)C1=C(C)N(CCOC)C(=O)/C1=C\c1ccccc1F	-5.26
